Measured values: article PMC10514306, “The CBL1/9-CIPK1 calcium sensor negatively regulates drought stress by phosphorylating the PYLs ABA receptor” (Nature Communications, 2023)
These are yes or no findings as the source states them, for the method shown. In cells and extracts the contact can be indirect. Some binding calls cover weakened binding; strength is not graded here. Where a sequence is shown, tags or fusion partners need not be part of it.

Chains of the proteins cited; added tags and fusions are not shown.
UniProt O49686: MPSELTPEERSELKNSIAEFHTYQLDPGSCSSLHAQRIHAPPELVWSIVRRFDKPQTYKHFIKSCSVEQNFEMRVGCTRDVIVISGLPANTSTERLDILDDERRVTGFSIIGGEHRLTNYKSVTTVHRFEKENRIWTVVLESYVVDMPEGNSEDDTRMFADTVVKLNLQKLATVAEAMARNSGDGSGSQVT
UniProt Q8VZS8: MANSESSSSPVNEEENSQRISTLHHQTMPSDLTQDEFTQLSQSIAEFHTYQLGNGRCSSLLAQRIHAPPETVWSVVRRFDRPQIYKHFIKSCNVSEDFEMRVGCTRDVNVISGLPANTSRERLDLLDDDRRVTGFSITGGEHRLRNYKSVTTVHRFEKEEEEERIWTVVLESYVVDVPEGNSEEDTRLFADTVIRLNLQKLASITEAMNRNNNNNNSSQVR

Legend:
Test in all cases: split reporter; split-luciferase complementation (LCI): CIPK1-nLUC and PYR1/PYLs-cLUC co-injected into N. benthamiana leaves, signal read after 72 h with a CCD camera
PYR1-cLUC (Arabidopsis) = PYR1-cLUC (Arabidopsis) (UniProt O49686)
PYL10-cLUC (Arabidopsis) = target: T1, PYL10-cLUC (Arabidopsis) (UniProt Q8H1R0)
T1 sequence: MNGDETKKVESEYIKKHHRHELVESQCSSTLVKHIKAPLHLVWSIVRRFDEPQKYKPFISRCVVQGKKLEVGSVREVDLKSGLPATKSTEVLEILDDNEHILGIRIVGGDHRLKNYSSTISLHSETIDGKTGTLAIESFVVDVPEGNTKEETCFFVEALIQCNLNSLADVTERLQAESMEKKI

PYL9-cLUC (Arabidopsis) = target: T2, PYL9-cLUC (Arabidopsis) (UniProt Q84MC7)
T2 sequence: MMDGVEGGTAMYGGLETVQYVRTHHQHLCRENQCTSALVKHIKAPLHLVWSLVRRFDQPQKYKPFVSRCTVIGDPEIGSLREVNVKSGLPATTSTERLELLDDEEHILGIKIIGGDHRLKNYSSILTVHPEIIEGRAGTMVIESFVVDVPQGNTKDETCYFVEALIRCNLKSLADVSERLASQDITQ

PYL4-cLUC (Arabidopsis) = target: T3, PYL4-cLUC (Arabidopsis) (UniProt O80920)
T3 sequence: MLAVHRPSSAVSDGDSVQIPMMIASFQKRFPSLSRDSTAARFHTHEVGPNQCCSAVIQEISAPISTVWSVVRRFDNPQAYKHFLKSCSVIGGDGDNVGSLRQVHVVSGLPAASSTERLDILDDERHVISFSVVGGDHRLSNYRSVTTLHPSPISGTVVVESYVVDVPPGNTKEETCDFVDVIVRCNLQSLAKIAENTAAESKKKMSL

PYL1-cLUC (Arabidopsis) = PYL1-cLUC (Arabidopsis) (UniProt Q8VZS8)
PYL11-cLUC (Arabidopsis) = target: T4, PYL11-cLUC (Arabidopsis) (UniProt Q9FJ50)
T4 sequence: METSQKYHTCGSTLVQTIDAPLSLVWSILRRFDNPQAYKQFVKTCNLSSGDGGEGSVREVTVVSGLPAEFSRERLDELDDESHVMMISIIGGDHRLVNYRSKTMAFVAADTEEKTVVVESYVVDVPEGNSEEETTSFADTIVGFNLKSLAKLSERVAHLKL

B1: CIPK1-nLUC (enzyme, UniProt Q8RWC9 1-444)
chain: MVRRQEEEKKAEKGMRLGKYELGRTLGEGNFGKVKFAKDTVSGHSFAVKIIDKSRIADLNFSLQIKREIRTLKMLKHPHIVRLHEVLASKTKINMVMELVTGGELFDRIVSNGKLTETDGRKMFQQLIDGISYCHSKGVFHRDLKLENVLLDAKGHIKITDFGLSALPQHFRDDGLLHTTCGSPNYVAPEVLANRGYDGAASDIWSCGVILYVILTGCLPFDDRNLAVLYQKICKGDPPIPRWLSPGARTMIKRMLDPNPVTRITVVGIKASEWFKLEYIPSIPDDDDEEEVDTDDDAFSIQELGSEEGKGSDSPTIINAFQLIGMSSFLDLSGFFEQENVSERRIRFTSNSSAKDLLEKIETAVTEMGFSVQKKHAKLRVKQEERNQKGQVGLSVTAEVFEIKPSLNVVELRKSYGDSCLYRQLYERLLKDVGTSSPEQEIVT
PYR1-cLUC (Arabidopsis)
  binding: binds
PYL10-cLUC (Arabidopsis)
  binding: no binding
PYL9-cLUC (Arabidopsis)
  binding: no binding
PYL4-cLUC (Arabidopsis)
  binding: binds
PYL1-cLUC (Arabidopsis)
  binding: binds
PYL11-cLUC (Arabidopsis)
  binding: no binding
